Data reported in the supplement of paper PMC8512760.
Where a name gives a salt, the structure may show the parent alone. This is one part of the list. Single values are uncertain, as repeats are few or missing.

How the values were obtained:
Assay in all cases: cell viability relative to vehicle (% of vehicle); basal-like triple-negative breast cancer lines; higher = less cytotoxic
Conditions in all cases: 10 µM; 72 h
[1] = test system: HCC-1143
[2] = test system: HCC-1187
[3] = test system: MDA-468
[4] = test system: SUM-149
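Further: stably firefly luciferase-GFP labeled cells in 96-well plates, viability read as luciferase photon flux after d-luciferin addition, treated wells normalized to vehicle wells, single-dose high-throughput screen.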

For CCCc1nn(C)c2c(=O)nc(-c3cc(S(=O)(=O)N4CCN(C)CC4)ccc3OCC)[nH]c12 [Sildenafil], the cell viability [1] was 65.5, the cell viability [2] was 93 and the cell viability [3] was 87.2. The cell viability [4] was 75.6.
Compound CC(=O)O[C@H]1C(=O)[C@@]2(C)[C@H]([C@H](OC(=O)c3ccccc3)[C@]3(O)C[C@H](OC(=O)[C@H](O)[C@@H](NC(=O)c4ccccc4)c4ccccc4)C(C)=C1C3(C)C)[C@]1(OC(C)=O)CO[C@@H]1C[C@@H]2O [Paclitaxel (Taxol)] has a cell viability [1] of 53.9, a cell viability [2] of 34.8 and a cell viability [3] of 33.8. For the same compound, the cell viability [4] was 62.4.
In the case of Cl.NCCc1ccc(O)c(O)c1 [Dopamine HCl], the cell viability [1] is reported as 97.7, the cell viability [2] is reported as 114 and the cell viability [3] is reported as 108. It also gave a cell viability [4] of 117.
In the case of CCN(CC)CCNC(=O)c1ccc(N)cc1.Cl [Procainamide HCl], the cell viability [1] is reported as 84.3, the cell viability [2] is reported as 91.3 and the cell viability [3] is reported as 97.1. For the same compound, the cell viability [4] was 95.8.
OC(CCCN1CCCCC1)(c1ccccc1)c1ccccc1 [Diphenidol HCl] was tested, and the cell viability [1] was 102, the cell viability [2] was 107 and the cell viability [3] was 109. It also gave a cell viability [4] of 79.2.
For O=C(c1cc(Cc2n[nH]c(=O)c3ccccc23)ccc1F)N1CCN(C(=O)C2CC2)CC1, the cell viability [1] was 91.2, the cell viability [2] was 67 and the cell viability [3] was 79.5. The cell viability [4] was 147.
CCN(CC)C(=O)C1(c2ccccc2)CC1CN.Cl (configuration not stated) [Milnacipran HCl] was tested, and the cell viability [1] was 96, the cell viability [2] was 103 and the cell viability [3] was 110. The cell viability [4] was 113.
In the case of CC(C)CC(NC(=O)C(CCc1ccccc1)NC(=O)CN1CCOCC1)C(=O)NC(Cc1ccccc1)C(=O)NC(CC(C)C)C(=O)C1(C)CO1 (configuration not stated) [Carfilzomib (PR-171)], the cell viability [1] is reported as 23.3, the cell viability [2] is reported as 22.3 and the cell viability [3] is reported as 23.6. The cell viability [4] was 35.6.
